At least one read-out could not be matched to a standard name with certainty.
System: perception of saltiness
Test: Na-solution DAP test: trained panel rates saltiness of compounds in sodium solution
Format: in vivo
Settings: individual compounds in sodium solution; compound concentrations of 0.1, 1 and 10 ppm; DAP score greater than 3.1 indicates saltiness or salt enhancement
Procedure: Briefly, each individual tested compound was placed in water and in sodium solution to test saltiness and saltiness enhancement potential. Tests in water were executed in a compound concentration of 10 ppm. Tests in sodium solution were executed in compound concentrations of 0.1, 1 and 10 ppm. Two control sodium solutions with known organoleptic salt intensities were provided as references for each test. The test for individual compounds was also conducted using simple broth instead of sodium solution. A number of compound combinations identified from the Na-solution DAP test were used for the broth DAP test. Tests were executed with a trained panel of 9-12 assessors. For Na-solution DAP tests, a DAP score of greater than 3.1 indicates saltiness or salt enhancement. The DAP score can be correlated with a sodium reduction potential by subtracting 3.1 from the DAP score.

Structure (SMILES) | DAP in Na-Sol.
CCC/C=C\C/C=C\CCCC/C=C\Cc1cc(O)cc(O)c1 [Compound 10] | 3.9
COc1cc(CC/C=C/C(=O)CCc2ccccc2)ccc1O [Compound 11] | 2.6
COc1cc(CCC(O)CC(=O)CCc2ccccc2)ccc1O (stereo not shown) [Compound 12] | 4
COc1cc(COC(=O)CCCC/C=C/C(C)C)ccc1O [Compound 13] | 3.8
O=C(/C=C/CC/C=C/c1ccc2c(c1)OCO2)N1CCCCC1 [Compound 14] | 3.6
CCCCC/C=C\CCCCCCc1cc(=O)c2ccccc2n1C [Compound 16] | 3.3
O=C(/C=C/C=C/c1ccc2c(c1)OCO2)N1CCCCC1 [Compound 18] | 3.8
COc1cc(CCC(O)CC(=O)CCc2ccccc2)ccc1O (stereo not shown) [Compound 20] | 4
C/C=C(\C)C(=O)O[C@H]1[C@H](O)[C@]2(CO)[C@H](O)C[C@]3(C)C(=CCC4[C@@]5(C)CC[C@H](O[C@@H]6O[C@H](C(=O)O)[C@@H](O[C@@H]7O[C@H](CO)[C@@H](O)[C@H](O)[C@H]7O)[C@H](O)[C@H]6O[C@@H]6O[C@H](CO)[C@@H](O)[C@H](O)[C@H]6O)[C@](C)(CO)C5CC[C@]43C)[C@@H]2CC1(C)C (stereo partly shown) [Compound 34] | 3.9
COc1c(CC=C(C)C)c(=O)[nH]c2ccccc12 [Compound 61] | 3.6
CC(C)(O)C(O)COc1c2ccoc2cc2oc(=O)ccc12 (stereo not shown) [Compound 63] | 3.5
C=C1C(=O)C[C@@H]2C[C@@]3(C)CCCC(=C)C3CC12 (stereo partly shown) [Compound 80b] | 3.9
COc1ccc(-c2cc3cccc(OC)c3c(=O)o2)cc1 [Compound 99] | 4.1

— US11540539B2, “Reduced sodium food products” (GENERAL MILLS, INC., priority 2013, dated 2023)
